Data on six molecules can be found in PMC12136788.

B1: chr6:42978268:42979150:-|CDS|ENSG00000124587|control|control|control (ssRNA)
RNA: GGGAGUUCUACAGUCCGACGAUCACUUCACAGCCGCACUUGGCUAGGGUGCAGGUCCUAGAACCUCGCUGGGACCUCUCUGAUAGACUGGGACCCGGCUCUGGACCGCUGGGAGAGCCCCUCGCUGACGGACUGGCGCUUGUCCAACAGAGGAUUGAGCAUCA
B2: ENSG00000070961:be:win_601|CDS|ENSG00000070961|bound_else_gene|NA|bound_elsewhere_windowed (ssRNA)
RNA: GGGAGUUCUACAGUCCGACGAUCCAGGUCAUUCAGAUACCUGUAGCUGACAUUACUGUUGGAGAUAUUGCUCAAGUGAAAUAUGGUGAUCUUCUUCCAGCUGACGGCAUACUUAUUCAAGGCAACGAUCUUAAAAUUGAUGAACAACAGAGGAUUGAGCAUCA
B3: ENSG00000198589:be:win_9401|3pUTR|ENSG00000198589|bound_else_gene|NA|bound_elsewhere_windowed (ssRNA)
RNA: GGGAGUUCUACAGUCCGACGAUCUAGAGGCUACCGGGUGCUGUAUUCAGCAACACCUGUUUUACUAUUUGUUAUUAAACUAUCAUCUCCACCUUCCUUUUGAUUAGCAAUUUGUACUAAGAAACGAAACAAUGUUAUUUGGUGCAACAGAGGAUUGAGCAUCA
B4: chr17:41691520:41691533:+|3pUTR|ENSG00000173812|msi1_unk|FALSE|overlapping (ssRNA)
RNA: GGGAGUUCUACAGUCCGACGAUCGGAACAAAUCUCAAACUGAUCCAUCAGUCAUGUAGCUAGCUGUAGAGCUUGCAACUUAAUAGCAGCAGCUGCCCAAUGCCAUGUGAAGUAACAAACUGGUUUUUGGUUUUUUUUUCCCCUCAACAGAGGAUUGAGCAUCA
B5: chr20:7982266:7982367:-|CDS|ENSG00000125827|msi1|total|mutant (ssRNA)
RNA: GGGAGUUCUACAGUCCGACGAUCGAGAAGUGAGGCCAAUGAUCAGGGGCCCCCAGGAGAGGACGGUGUGACCCGGGAGGAAGCCGAGCCUGAGGAGGCUGAAGAAGGCAUCUCUGAGCAACCCUGCCCAGCUGACACAGAGGUCAACAGAGGAUUGAGCAUCA
B6: chr5:37007335:37007444:+|CDS|ENSG00000164190|unk|FALSE|unique (ssRNA)
RNA: GGGAGUUCUACAGUCCGACGAUCAGGCUUAUUAAGUUCAAAAGCAAAACGGGCUAAAUGUUCUACCCAUAAGCAGAGAGUAAUAGUAAUGCUUUAUAACAAAGUUUGUGACAUUGUUAGCAGCUUAUCAGAAUUGCUAGAGAUCAACAGAGGAUUGAGCAUCA

The other results are listed elsewhere or left out.

In this experiment the target is MSI1 full-length (mouse, UniProt Q61474 1-362). Nature of the experiment: nsRBNS (natural sequence RNA bind-n-seq); RBNS binding buffer (assumed for nsRBNS): 25 mM Tris pH 7.5, 150 mM KCl, 3 mM MgCl2, 0.01% Triton X-100, 500 ug/ml BSA, 20 U/ml SUPERase-In, 4 C; UNK is unkempt and MSI1 is Musashi-1; names of the RNAs are library labels; protein concentration not given here; high values mean tight binding.
UniProt Q61474, sequence (Q61474 whole entry): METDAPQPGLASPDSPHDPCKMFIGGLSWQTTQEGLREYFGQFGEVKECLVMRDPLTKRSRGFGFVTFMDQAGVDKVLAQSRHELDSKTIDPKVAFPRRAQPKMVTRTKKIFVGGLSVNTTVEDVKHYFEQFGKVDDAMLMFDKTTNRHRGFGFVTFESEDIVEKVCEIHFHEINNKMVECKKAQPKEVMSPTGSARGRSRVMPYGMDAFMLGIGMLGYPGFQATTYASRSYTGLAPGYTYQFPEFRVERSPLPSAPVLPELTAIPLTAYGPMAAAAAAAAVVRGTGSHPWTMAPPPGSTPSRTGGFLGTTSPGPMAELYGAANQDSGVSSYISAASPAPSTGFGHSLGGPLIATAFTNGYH
With B1, the binding signal was 0.398 enrichment R.
Molecule B2 yielded a binding signal of 0.234 enrichment R.
With B3 the figure was 2.21 enrichment R; with B4, 1.04 enrichment R; with B5, 0.51 enrichment R.
B6 displayed a binding signal of 2.66 enrichment R.
